The source of these data is patent US12116397B2, “IL-IR-I binding polypeptide” (Swedish Orphan Biovitrum AB (publ), priority 2017, dated 2024).

Where two headings read alike, the source gives them in different places. Some results are limits rather than exact numbers.

As a reminder, the Kd is the concentration at which binding is half-saturated. The IC50 is the point on the concentration scale where inhibition reaches its midpoint. Low readings indicate higher potency, high ones lower potency. A word on the koff: it is a measure of how fast the partners let go of each other. A low value points to a long-lived complex. As a reminder, the kon is a measure of how fast the partners come together. Lower therefore signals slow association. The term EC50 denotes the concentration giving half of the maximal effect. A low value points to an effect from little substance.

One data set concerns the target cynomolgus IL-1R-I. Kind of data set: Biacore affinity/kinetic analysis of His6-tagged Z variants, cynomolgus IL-1R-I. The class given is binding. The protocol: Affinities (KD) for human and cynomolgus IL-1R-I were determined for His6-tagged Z variants using a Biacore 2000 instrument (GE Healthcare). hIL-1R-I or cIL-1R-I-His6 was immobilized on the carboxylated dextran layer in different flow cells of a CM5 chip (GE Healthcare, cat. no. BR100012). The immobilization was performed using amine coupling chemistry according to the manufacturer's protocol. Acetate pH 4.5 (GE Healthcare, cat. no. BR100350) was used for ligand dilution and HBS-EP (GE Healthcare, cat. no. BR100188) was used as running buffer. One flow cell surface on the chip was activated and deactivated for use as blank during analyte injections. In the kinetic experiment, HBS-EP was used as running buffer, the flow rate was 50 μl/min and the temperature was 25° C. The analytes, i.e. the Z variants, were each diluted in HBS-EP buffer to final concentrations of 40 nM and 10 nM, and were injected over the target chip surfaces for 2 min, followed by dissociation in running buffer for 8 min. Kinetic constants were calculated from the obtained sensorgrams using a 1:1 binding model, in the BiaEvaluation software 4.1 (GE Healthcare).
The kinetic constants (kon and koff) and affinities (KD) for human and cynomolgus IL-1R-I were determined for His6-tagged Z variants using a Biacore 2000 instrument (GE Healthcare). The experiment was run essentially as described in Example 2, using 100, 10 and 1 nM of the Z variants. The analyte injection time was 3 min followed by 15 min dissociation and 2×5 s glycine pH 3.0 (GE Healthcare, cat. no. BR100357), supplemented with 0.5 M NaCl, was used for regeneration of the surfaces between the cycles. Kinetic constants were calculated from the obtained sensorgrams of two or three concentrations of the respective Z variant, using a 1:1 binding model in the BiaEvaluation software 4.1 (GE Healthcare). His6-tagged Z12967 was included in the assay for comparison.
The kinetic constants (kon and koff) and affinities (KD) for human and cynomolgus IL-1R-I were determined for His6-tagged Z variants using a Biacore 2000 instrument (GE Healthcare). The experiment was run essentially as described in Example 5, using 48, 12, 3 and 0.75 nM of the Z variants. The analyte injection time was 3 min followed by 6 min dissociation and 2×5 s glycine pH 3.0, supplemented with 0.5 M NaCl, was used for regeneration of the surfaces between the cycles. Kinetic constants were calculated from the obtained sensorgrams of three or four concentrations of the respective Z variant, using a 1:1 binding model in the BiaEvaluation software 4.1 (GE Healthcare). His6-tagged Z12967 (SEQ ID NO:9), Z16065 (SEQ ID NO:268), Z16163 (SEQ ID NO:359) and Z18557 (SEQ ID NO:1205) were included in the assay for comparison.
On the technique in general: In SPR one partner is held on a chip, and binding of the other changes the refractive index at the surface.

Another data set concerns TF-1 cells. Kind of data set: In vitro IL-1β neutralization assay (TF-1 cell assay). The class given is cell-based.
For data set [1], the target named is T1, hIL-1R-I (Homo sapiens, UniProt P14778).
T1 construct: purchased R&D Systems 269-1R/CF
T1 sequence (P14778 18-569): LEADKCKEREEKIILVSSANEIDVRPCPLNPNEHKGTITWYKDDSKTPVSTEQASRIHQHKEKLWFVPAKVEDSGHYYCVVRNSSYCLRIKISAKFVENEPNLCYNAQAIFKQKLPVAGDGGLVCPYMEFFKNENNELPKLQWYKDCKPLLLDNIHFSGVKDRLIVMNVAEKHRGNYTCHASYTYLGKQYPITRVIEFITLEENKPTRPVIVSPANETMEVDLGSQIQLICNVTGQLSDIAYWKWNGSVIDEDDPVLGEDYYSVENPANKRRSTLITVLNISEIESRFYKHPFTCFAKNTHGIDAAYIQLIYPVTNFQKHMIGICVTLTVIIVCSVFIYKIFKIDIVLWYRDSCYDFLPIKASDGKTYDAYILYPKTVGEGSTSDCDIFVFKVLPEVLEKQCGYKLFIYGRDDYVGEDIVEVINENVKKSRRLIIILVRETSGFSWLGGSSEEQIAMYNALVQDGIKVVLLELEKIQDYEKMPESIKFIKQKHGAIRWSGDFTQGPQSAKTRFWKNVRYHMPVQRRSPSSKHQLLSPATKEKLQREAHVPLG
Put plainly: Biacore affinity/kinetic analysis of His6-tagged Z variants, human IL-1R-I. It counts as binding.

The nature of data set [2]: Circular dichroism (CD) spectroscopy analysis, melting temperature and refolding. As to conditions: for Melting temperatures (Tm): His6-tagged Z variants, CD variable temperature measurement. The class given is physicochemical.
Data set [3] concerns the target T1, hIL-1R-I. Kind of data set: Biacore kinetic screening of Z-ABD periplasmic extracts captured on anti-ABD antibody. The class given is binding. As to conditions: Z-ABD periplasmic extracts captured on anti-ABD antibody, single concentration of hIL-1R-I, Table 18. The protocol: The binding of Z variants to human IL-1R-I was analyzed in a kinetic screening using a Biacore T200 instrument. A polyclonal goat anti-ABD antibody (goat anti-ABD) was immobilized on CM5 chip surfaces basically as described for other proteins in Example 2. For the kinetic screening, analytes were injected in two steps. First, a Z-ABD (ABD001, SEQ ID NO:1660) periplasmic extract was injected over the surface at 5 μl/min for 1 min. As a second step, 100 nM hIL-1R-I was injected at 30 μl/min for 2 min, followed by 2 min of dissociation in running buffer HBS-EP. Glycine-HCl pH 2.0 (cat. no. BR100355, GE Healthcare) was used for regeneration of the antibody surfaces between the cycles. The temperature of the assay was 25° C. Before performing the kinetic analyses, the signal from 100 nM hIL-1R-I injected over a reference surface containing goat anti-ABD but no Z-ABD sample was subtracted from the sensorgram of Z-ABD binding to hIL-1R-I. Rough screening affinities (KD) were calculated from the reference subtracted 100 nM hIL-1R-I response using a 1:1 binding model of the BiaEvaluation software 4.1 (GE Healthcare). […]
The binding of Z variants to human IL-1R-I was analyzed in a kinetic screening, using a Biacore 2000 instrument, essentially as described in Example 4, but with the exception that Z-ABD (ABD001, SEQ ID NO:1660) periplasmic extracts were injected during 2 min. […]

Another data set has as its target T2, hIL-1R-I-Fc (Homo sapiens, UniProt P14778).
T2 construct: purchased Creative BioMart IL1 RI-771H
Kind of data set: EC50 analysis of Z variants by ELISA target titration. It counts as binding. As to conditions: periplasmic Z-ABD; hIL-1R-I-Fc 100 to 0.01 nM; first matured library (Example 4).

[4] abbreviates: His6-tagged, TF-1 cell assay (Example 5).
Where [5] appears, read: His6-tagged, TF-1 cell assay, comparison variants (Example 9).
Where [6] appears, read: His6-Z polypeptides, 100, 10 and 1 nM (Example 5), read-out: KD.
Setting [7] is: His6-tagged, 48, 12, 3 and 0.75 nM, comparison variants (Example 9), read-out: KD to human IL-1R-I.
Where [8] appears, read: His6-tagged (Example 9), read-out: KD of cynomolgus IL-1R-I binding.
The mark [9] stands for this setting: His6-Z polypeptides binding to human IL-1R-I, Biacore, Table 19.
Where [10] appears, read: His6-Z polypeptides binding to human IL-1R-I, Biacore, Table 19, read-out: KD.
Where [11] appears, read: His6-Z polypeptides, IL-1β inhibition in TF-1 cell assay, Table 20 (Example 9).
Setting [12] is: His6-Z polypeptides, IL-1β inhibition in TF-1 cell assay, Table 12 (first matured library).
Where [13] appears, read: His6-Z polypeptides, 100, 10 and 1 nM (Example 5).

T2 sequence (P14778 with tags, fused parts or gaps limits assumed): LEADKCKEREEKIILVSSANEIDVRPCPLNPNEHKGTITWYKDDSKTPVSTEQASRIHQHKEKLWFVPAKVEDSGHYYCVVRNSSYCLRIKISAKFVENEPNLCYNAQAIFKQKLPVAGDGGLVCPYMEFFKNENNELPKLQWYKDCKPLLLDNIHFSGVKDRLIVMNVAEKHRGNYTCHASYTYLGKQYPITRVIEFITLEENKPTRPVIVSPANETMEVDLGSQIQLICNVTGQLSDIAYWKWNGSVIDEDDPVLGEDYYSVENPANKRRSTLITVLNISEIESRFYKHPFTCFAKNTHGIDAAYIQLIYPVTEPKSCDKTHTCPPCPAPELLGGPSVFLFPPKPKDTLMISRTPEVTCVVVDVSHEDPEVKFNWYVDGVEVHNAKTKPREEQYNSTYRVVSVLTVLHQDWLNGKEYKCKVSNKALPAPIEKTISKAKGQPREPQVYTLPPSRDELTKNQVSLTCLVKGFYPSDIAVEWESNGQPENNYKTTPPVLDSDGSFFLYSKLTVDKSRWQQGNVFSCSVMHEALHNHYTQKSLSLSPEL

As for “Z12967: IL-1R-I binding Z variant (VDAKYAKEAHRAQMEIFALPNLTRRQYTAFIRKLLDDPSQSSELLSEAKKLNDSQAPK; Engineered IL-1R-I binding polypeptide)”, the Kd came to 35 nM at cynomolgus IL-1R-I (His6-tagged Z variant, Biacore 2000 (Example 2), read-out: affinity (KD) to cynomolgus IL-1R-I); 0.51 nM in the data set with hIL-1R-I [1] (setting [6]); 1.2 nM in the data set with hIL-1R-I [1] (His6-Z polypeptides, Biacore 2000, 25° C., 40 nM and 10 nM (Example 2), read-out: Human IL-1R-I KD); 0.82 nM in the data set with hIL-1R-I [1] (setting [7]). The IC50 in the data set with TF-1 cells (His6-Z polypeptides, 0.6 nM IL-1β, 72 h (Example 2)) was determined as 1.1 nM; in the data set on TF-1 cells (setting [4]), 5.2 nM; in the data set with TF-1 cells (setting [5]), 7.4 nM. The “Tm (° C.)” value in data set [2] (His6-tagged Z variants 0.5 mg/ml in PBS, 221 nm, 20 to 90° C. (Example 2)) came out at 58 °C.
In the case of “Z18800: IL-1R-I binding Z variant (VDAKYAKEIEEIQMEIFRLPNLTRRQYTAFIRKLLDDPSQSSELLSEAKKLNDSQAPK; Engineered IL-1R-I binding polypeptide)”, the dissociation constant (Kd) at cynomolgus IL-1R-I (setting [8]) came to 3.3 nM. In addition, in the data set with hIL-1R-I [1] (setting [9]), the koff was 0.0025 s⁻¹ and the kon turned out to be 1.8e+07 M⁻¹ s⁻¹. Further, the Kd with hIL-1R-I [1] (setting [10]) was 0.14 nM. Also, the “Melting temperatures (Tm)” value in data set [2] (Table 21) was 67 °C.
In the data set with hIL-1R-I [3], “Z15840: IL-1R-I binding Z variant (VDAKYAKEVEVAQMEIFALPNLTRKQYTAFIRKLLDDPSQSSELLSEAKKLNDSQAPK; Engineered IL-1R-I binding polypeptide)” registered a dissociation constant Kd of 6.9 nM. The substance further registered an EC50 with hIL-1R-I-Fc of 0.25 nM.
As for “Z18760: IL-1R-I binding Z variant (VDAKYAKETEAVQMEIFALPNLTRRQYTAFIRKLLDDPSQSSELLSEAKKLNDSQAPK; Engineered IL-1R-I binding polypeptide)”, the Kd stood at 6.7 nM at cynomolgus IL-1R-I (setting [8]) and 0.21 nM in the data set with hIL-1R-I [1] (setting [10]). In the data set with TF-1 cells (setting [11]), 0.9 nM corresponded to half-maximal inhibition (IC50). The koff with hIL-1R-I [1] (setting [9]) was determined as 0.0027 s⁻¹. In the data set with hIL-1R-I [1] (setting [9]), this substance returned a kon of 1.3e+07 M⁻¹ s⁻¹. The “Melting temperatures (Tm)” value in data set [2] (Table 21) is 57 °C.
Consider “Z18754: IL-1R-I binding Z variant (VDAKYAKEVEEIQMEIFRLPNLTRRQYTAFIRKLLDDPSQSSELLSEAKKLNDSQAPK; Engineered IL-1R-I binding polypeptide)”, for which, at cynomolgus IL-1R-I (setting [8]), the Kd is 2 nM. In the data set on TF-1 cells (setting [11]), this substance registered an IC50 of 0.6 nM. In the data set with hIL-1R-I [1] (setting [9]), this substance gave a koff of 0.006 s⁻¹ and a kon of 7e+07 M⁻¹ s⁻¹. Besides, the equilibrium dissociation constant (Kd) in the data set with hIL-1R-I [1] (setting [10]) amounted to 0.086 nM. Moreover, in data set [2] (Table 21), the “Melting temperatures (Tm)” value worked out at 63 °C.
In the case of “Z18557: IL-1R-I binding Z variant with valine in position 12 (VDAKYAKEIEAVQMEIFYLPNLTRKQYTAFIRKLFDDPSQSSELLSEAKKLNDSQAPK; Engineered IL-1R-I binding polypeptide)”, the Kd was 7.6 nM at cynomolgus IL-1R-I (His6-tagged (Example 5), read-out: KD against cynomolgus IL-1R-I); 0.15 nM in the data set with hIL-1R-I [1] (setting [6]); 0.14 nM with hIL-1R-I [1] (setting [7]). The IC50 is less than 0.5 nM in the data set with TF-1 cells (setting [12]), less than 0.5 nM with TF-1 cells (setting [4]) and 0.6 nM in the data set with TF-1 cells (setting [5]). Further, in the data set with hIL-1R-I [1] (setting [13]), the “koff” value was 0.00067 s⁻¹. Besides, the “kon” value with hIL-1R-I [1] (setting [13]) was 4.4e+06 M⁻¹ s⁻¹. In data set [2] (Table 13), the “Melting temperatures (Tm)” value was 60 °C.
Regarding “Z16117: IL-1R-I binding Z variant (VDAKYAKEIEKAQFEIFALPNLTRKQYTAFIRKLFDDPSQSSELLSEAKKLNDSQAPK; Engineered IL-1R-I binding polypeptide)”, the IC50 in the data set on TF-1 cells (setting [12]) stood at 8.5 nM. In the data set with hIL-1R-I [1] (setting [13]), the “koff” value was determined as 0.0027 s⁻¹ and the “kon” value amounted to 4e+06 M⁻¹ s⁻¹. For the same substance, the Kd with hIL-1R-I [1] (setting [6]) turned out to be 0.69 nM. Besides, the “Melting temperatures (Tm)” value in data set [2] (Table 13) came to 63 °C.
